# Assay results reported in the supplement of paper PMC12355420.
# Where “and” joins values, the source holds several entries; their conditions need not be identical. Identical values can stand only once. Counter-ions that a name gives are not always drawn. This is one part of the list. No stated cut-off is given here; in the data, active = 0.5 or less and inactive = the rest. Many values rest on one well or one pass, so single values are uncertain.
# How the values were obtained:
# Settings in all cases: 50 µM; 24 h
# [1] = tested on: HeLa VPS33A reporter cells; assay: relative cell viability (CellMask signal) vs DMSO (fraction of DMSO); higher = less cytotoxic;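 further: primary screen of an FDA-approved drug library in HeLa reporter cells in 96-well format, CellMask signal normalized to DMSO-treated wells set as 1, under 0.5 deemed highly cytotoxic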
# [2] = tested on: HeLa VPS33A R498W KI + HA-SDC1-FLAG; assay: relative GAG core protein HA-SDC1 amount per cell number vs DMSO (fraction of DMSO); higher = more SDC1 (GAG core protein);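 further: HA-SDC1 level read out by In-Cell Western staining with an anti-HA antibody against the N-terminal tag, screening FDA-approved library drugs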
# [3] = tested on: HeLa VPS33A KO + NLuc-VPS33A R498W; assay: relative mutant VPS33A R498W amount (NanoLuc luminescence) vs DMSO (fraction of DMSO); HeLa model of a glycosaminoglycan (GAG) storage disease; KI is knock-in and KO knock-out; SDC1 is syndecan 1; higher = higher mutant VPS33A level;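 further: screen of an FDA-approved drug library, NanoLuc luminescence read after lysing the treated cells, taken as a measure of mutant VPS33A protein stability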
SMILES,relative cell viability [1],relative GAG core protein HA-SDC1 amount per cell number [2],relative mutant VPS33A R498W amount [3]
CC(C)(C)c1ccc(C(=O)CCCN2CCC(OC(c3ccccc3)c3ccccc3)CC2)cc1 [Ebastine],1.12,inactive: 0.735,0.0807
OCC(O)CN1CCN(c2ccccc2)CC1 (stereo not given) [Dropropizine],1.01,inactive: 0.794,1.25
C[C@H]1c2cccc(O)c2C(O)=C2C(=O)[C@]3(O)C(O)=C(C(N)=O)C(=O)[C@@H](N(C)C)[C@@H]3[C@@H](O)[C@@H]21 [Doxycycline hyclate],1.08,inactive: 0.52,0.358
O=C(CCCN1CCC(O)(c2ccc(Cl)cc2)CC1)c1ccc(F)cc1 [Haloperidol],0.944,inactive: 1.05,1.37
CC1(C)O[C@@H]2C[C@H]3[C@@H]4C[C@H](F)C5=CC(=O)C=C[C@]5(C)[C@@]4(F)[C@@H](O)C[C@]3(C)[C@]2(C(=O)CO)O1 [Fluocinolone Acetonide],1.04,inactive: 1.07,1.34
CC(=O)[C@@]1(O)CC[C@H]2[C@@H]3CCC4=CC(=O)CCC4=C3[C@@H](c3ccc(N(C)C)cc3)C[C@@]21C [Ulipristal],0.88,active: 0.224,0.848
CCCCCCOC(=O)NC(=N)c1ccc(NCc2nc3cc(C(=O)N(CCC(=O)OCC)c4ccccn4)ccc3n2C)cc1,1.3,inactive: 1.09,0.15
COc1ccccc1O [Guaiacol],1.1,inactive: 0.944,1.22
NC(=O)c1nc(F)cnc1O,1.3,inactive: 1.04,1.03
O=C(O)CSCC(=O)NC1CCSC1=O (stereo not given) [Erdosteine],1.02,inactive: 0.824,1.3
Cn1cncc1[C@@](N)(c1ccc(Cl)cc1)c1ccc2c(c1)c(-c1cccc(Cl)c1)cc(=O)n2C [Tipifarnib (Zarnestra)],0.747,active: 0.344,0.567
CCN1CCCC1CNC(=O)c1cc(S(N)(=O)=O)ccc1OC (racemic) [(RS)-(±)-Sulpiride],1.17,inactive: 0.813,1.33
CC(=O)OCC(=O)[C@@]1(O)CC[C@H]2[C@@H]3CCC4=CC(=O)C=C[C@]4(C)[C@H]3[C@@H](O)C[C@@]21C [Prednisolone Acetate],0.973,inactive: 1.1,0.908
NC(=O)CC[C@@H](N)C(=O)O [D-Glutamine],0.99,inactive: 1.07,1.21
O=c1oc2c(O)c(O)cc3c(=O)oc4c(O)c(O)cc1c4c23 [Ellagic acid],1.23,inactive: 1.3,0.815
CCOC(=O)C1=C[C@]2(CC)CCCN3CCc4c(n1c1ccccc41)[C@@H]32 [Vinpocetine],1.01,inactive: 0.904,0.726
CC[C@@]1(O)C(=O)OCc2c1cc1n(c2=O)Cc2cc3c(CN(C)C)c(O)ccc3nc2-1 [Topotecan],1.03,inactive: 0.587,0.719
CCCNC(C)C(=O)Nc1c(C)csc1C(=O)OC (stereo not given) [Articaine HCl],1.11,inactive: 0.778,1.25
COCCCN1CCC(NC(=O)c2cc(Cl)c(N)c3c2OCC3)CC1 [Prucalopride],1.01,inactive: 0.946,1.38
CCOc1ccc(Cc2cc([C@@H]3O[C@H](CO)[C@@H](O)[C@H](O)[C@H]3O)ccc2Cl)cc1 [Dapagliflozin],1.08,inactive: 1.12,0.741
O=C(O)[C@H](O)c1ccccc1 [R-(-)-Mandelic Acid],1.13,inactive: 0.797,1.11
C[N+](C)(C)CCOP(=O)(O)OP(=O)([O-])OC[C@H]1O[C@@H](n2ccc(N)nc2=O)[C@H](O)[C@@H]1O [Citicoline (sodium salt)],0.997,inactive: 1.04,1.32
O=C1Cc2cc(CCN3CCN(c4nsc5ccccc45)CC3)c(Cl)cc2N1 [Ziprasidone HCl],0.994,inactive: 1.38,1.27
CC(C)(C)OC(=O)N[C@H]1CCCCC/C=C\[C@@H]2C[C@@]2(C(=O)NS(=O)(=O)C2CC2)NC(=O)[C@@H]2C[C@@H](OC(=O)N3Cc4cccc(F)c4C3)CN2C1=O [Danoprevir (RG7227)],0.619,inactive: 0.583,0.881
CCCC(=O)Nc1ccc(OCC(O)CNC(C)C)c(C(C)=O)c1 (stereo not given) [Acebutolol HCl],1.23,inactive: 0.774,0.938
COc1ccc(-c2cc(=O)c3c(O)cc(O[C@@H]4O[C@H](CO[C@@H]5O[C@@H](C)[C@H](O)[C@@H](O)[C@H]5O)[C@@H](O)[C@H](O)[C@H]4O)cc3o2)cc1O [Diosimin],1.1,inactive: 0.848,0.836
Cc1ncc(C[n+]2csc(CCO)c2C)c(N)n1 [thiamine],1.09,inactive: 1,1.2
CCCCC(=O)O[C@H]1CC[C@H]2[C@@H]3CCc4cc(O)ccc4[C@H]3CC[C@]12C [Estradiol valerate],1.04,inactive: 1.17,1.24

SMILES,relative cell viability [1],relative GAG core protein HA-SDC1 amount per cell number [2],relative mutant VPS33A R498W amount [3]
COc1cc(C=O)ccc1O [Vanillin],1.07,inactive: 0.799,1.18
CCN(CC)CCNC(=O)c1ccc(N)cc1 [Procainamide HCl],1.07,inactive: 0.792,1.22
CO/N=C(\C(=O)N[C@@H]1C(=O)N2C(C(=O)OCOC(=O)C(C)(C)C)=C(/C=C\c3scnc3C)CS[C@H]12)c1csc(N)n1 [Cefditoren Pivoxil],0.807,active: 0.378,1.89
C[Se]CC[C@H](N)C(=O)O [L-Selenomethionine],1.01,inactive: 1.02,1.1
CC(=O)[C@@]1(O)CC[C@H]2[C@@H]3CCC4=CC(=O)CC[C@]4(C)[C@H]3CC[C@@]21C [17-Hydroxyprogesterone],1.11,inactive: 1.03,1.33
Nc1cc(C(Cl)=C(Cl)Cl)c(S(N)(=O)=O)cc1S(N)(=O)=O [Clorsulon],1.07,inactive: 0.979,1.34
CCCCCCCCCCCCCCCCO [1-Hexadecanol],1.07,inactive: 1.05,1.22
OC[C@H]1O[C@@H](Oc2ccc(O)cc2)[C@H](O)[C@@H](O)[C@@H]1O [Arbutin],0.995,inactive: 0.958,1.3
C[C@H]1c2cccc(O)c2C(O)=C2C(=O)[C@]3(O)C(O)=C(C(N)=O)C(=O)[C@@H](N(C)C)[C@@H]3[C@@H](O)[C@@H]21 [Doxycycline HCl],1.26,active: 0.425,0.294
CC[C@H]1OC(=O)[C@H](C)[C@@H](O[C@H]2C[C@@](C)(OC)[C@@H](O)[C@H](C)O2)[C@H](C)[C@@H](O[C@@H]2O[C@H](C)C[C@H](N(C)C)[C@H]2O)[C@](C)(O)C[C@@H](C)[C@@H]2N[C@@H](COCCOC)O[C@H]([C@H]2C)[C@]1(C)O [Dirithromycin],0.947,inactive: 0.809,0.886
C[N+](C)(C)CCO.[Cl-] [Choline Chloride],0.997,inactive: 0.78,1.05
O=C(O)CCNC(=O)c1ccccc1 [Betamipron],1.11,inactive: 1.23,1.24
Cc1c(C(=O)Nc2ccc(N3C[C@@H](C)O[C@@H](C)C3)nc2)cccc1-c1ccc(OC(F)(F)F)cc1 [LDE225 Diphosphate],1.03,inactive: 0.773,0.485
Cc1onc(-c2ccccc2)c1-c1ccc(S(N)(=O)=O)cc1 [Valdecoxib],0.893,inactive: 0.864,1
COc1cccc(OC)c1C(=O)OCc1cc(O)ccc1O[C@@H]1O[C@H](CO)[C@@H](O)[C@H](O)[C@H]1O [Curculigoside],0.96,inactive: 0.82,1.12
NCCCCCC(=O)O [(6-)ε-Aminocaproic acid],0.967,inactive: 0.994,1.13
CCC1(c2ccccc2)C(=O)NCNC1=O [Primidone],0.993,inactive: 0.869,1.62
CCCCC(=O)N(Cc1ccc(-c2ccccc2-c2nnn[nH]2)cc1)[C@H](C(=O)O)C(C)C [Valsartan],1.02,inactive: 0.855,1.77
Oc1ccc(C2CNCCc3c2cc(O)c(O)c3Cl)cc1 (stereo not given) [Fenoldopam (mesylate)],0.913,inactive: 0.696,1.25
C[C@]12CC[C@@H]3c4ccc(O)cc4CC[C@H]3[C@@H]1CC[C@@H]2OC(=O)CCC1CCCC1 [Estradiol Cypionate],1.03,inactive: 1.3,0.941
O=C(NC[C@H]1CN(c2ccc(N3CCOCC3=O)cc2)C(=O)O1)c1ccc(Cl)s1 [Rivaroxaban],1.07,inactive: 1.04,0.953
Nc1nc(=O)n([C@@H]2CS[C@H](CO)O2)cc1F [Emtricitabine],1.16,inactive: 1.08,1.1
NCC(=O)CCC(=O)O [5-Aminolevulinic acid HCl],0.946,inactive: 0.883,1.39
C[C@@H]1CCN(C(=O)CC#N)C[C@@H]1N(C)c1ncnc2[nH]ccc12,1.02 and 0.994,inactive: 0.984 and inactive: 0.976,0.375 and 0.364
Cc1ccc(-n2[nH]c(C)c(N=Nc3cccc(-c4cccc(C(=O)O)c4)c3O)c2=O)cc1C [Eltrombopag],0.842,active: 0.244,0.522
CC[C@H](C)C(=O)O[C@H]1C[C@@H](C)C=C2C=C[C@H](C)[C@H](CC[C@@H]3C[C@@H](O)CC(=O)O3)[C@H]21 [Lovastatin],0.792,inactive: 0.636,3.47
NS(=O)(=O)c1cc2c(cc1Cl)N=CNS2(=O)=O [Chlorothiazide],1.25,inactive: 1.51,1.13
